# Data published in PubChem BioAssay AID493208 (National Center for Advancing Translational Sciences (NCATS), 2011).
# The whole screen tested about 44,000 compounds, of which about 340 (0.77%) were called active. Roughly 5% stayed inconclusive and do not appear here. The call rests on the fitted dose curve; in most records, active means well fitted inhibition curve with a large enough effect; inconclusive means small, poorly fitted or top-dose-only effect; inactive means flat fitted curve, though single readings scatter. This is one part of the list.
# Experiment: Acumen qHTS Assay for Inhibitors of the mTORC1 Signaling Pathway in MEF (Tsc2-/-, p53-/-) Cells: Sytravon;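 further: plate controls were DMSO for no effect and rapamycin for full effect; nearly all actives have a fitted effect of over 50% in size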
# Conditions: phospho-rpS6 immunofluorescence/PI, 24 h; series mostly up to 38.3 µM; activity change, negative = inhibition: at the top concentration
# Outline: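 Compounds act on Tsc2-/-, p53-/- fibroblasts carrying an empty vector for 24 h before fixation and dual staining for phospho-S6 and DNA (propidium iodide). Values are percentages of cells above a rapamycin-defined pS6/PI threshold.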
row,Structure (SMILES),"activity change, negative = inhibition"
1,COC(=O)c1sccc1S(=O)(=O)N(CC(=O)Nc1ccccc1C)c1ccc(Cl)cc1,inactive: 1.82%
2,Cc1ccccc1NC(=O)CSc1nc2ccc(NC(=O)CCc3ccccc3)cc2s1,inactive: -8.07%
3,COc1ccc(C(=O)NCc2nc(-c3cccc(C)c3)no2)cc1OC,inactive: -5.34%
4,Cc1nc(-c2ccc(S(=O)(=O)NCc3ccc(F)cc3)cc2)co1,inactive: 0.175%
5,COc1cccc(C(=O)COC(=O)c2cc(-c3cccs3)nc3ccccc23)c1,inactive: -1.51%
6,Cc1cc(NS(=O)(=O)c2cn(C)c(C)n2)ccc1Br,inactive: -5.2%
7,Cc1ccccc1OCC(=O)Nc1nnc(SCc2cc(=O)n3cc(Cl)ccc3n2)s1,inactive: 5.54%
8,COc1cccc(CNC(=O)CCc2c(C)nc3c4c(C)cc(C)nc4nn3c2C)c1,inactive: 1.44%
9,Cc1ccc(C)c(CN2C(=O)c3ccccc3S(=O)(=O)c3ccc(C(=O)NCCc4ccc(Cl)cc4)cc32)c1,inactive: -10.7%
10,Cc1ccc(CCNc2nc3ccccc3c3nc(-c4cccnc4)nn23)cc1,inactive: -1.95%
11,CCc1ccccc1NC(=O)C1CCN(c2nc3ccccc3[nH]2)CC1,inactive: 1.78%
12,CCOC(=O)c1c(C)[nH]c(C)c1S(=O)(=O)NCC(=O)NCc1cccc(Br)c1,inactive: -8.78%
13,CC(C)CCSc1nnc2n(-c3ccccc3)c(=O)c3c4c(sc3n12)CC(C)CC4 (stereo unspecified),inactive: 13.3%
14,COC(=O)c1ccccc1N(C)S(=O)(=O)c1cc2c3c(c1)CC(=O)N3CCC2,inactive: 0%
15,CCc1ccc(NC(=O)Cn2c(=O)nc(-c3ccccc3F)c3cc(Cl)ccc32)cc1,inactive: 0%
16,Cc1cc(C)nc(-n2nc(C)c3c2N(Cc2ccccc2C)C(=O)CC3c2ccc(Cl)cc2)n1 (stereo unspecified),inactive: -0.795%
17,O=C(Nc1ccc(Oc2ccccc2)cc1)c1ccc(F)c(S(=O)(=O)N2CCN(c3ccccc3F)CC2)c1,inactive: 12.4%
18,Cc1ccc2cc3cc(C(=O)N4CCN(c5ccccc5)CC4)sc3nc2c1,inactive: -13.6%
19,COc1cccc(NC(=O)/C(C#N)=C/c2ccc(-c3ccc(C)cc3)o2)c1,inactive: -15%
20,O=C(Cn1cc(S(=O)(=O)Cc2cccc(Cl)c2)c2ccccc21)NCc1ccccc1Cl,inactive: -1.64%
21,CCn1cc(C(=O)N2CCN(c3cccc(C)c3)C(C)C2)c(=O)c2cc(S(=O)(=O)N3CCOCC3)ccc21 (stereo unspecified),inactive: -20.7%
22,COc1ccc(-c2nsc(NC(=O)c3oc4ccccc4c3C)n2)cc1,inactive: 1.59%
23,CCCNc1ncnc2c1c(-c1ccccc1)cn2-c1ccccc1,inactive: 9.94%
24,O=C(Cn1ccc2cc(S(=O)(=O)N3CCCCCC3)ccc21)NCc1cccc(Cl)c1,inactive: -7.96%

row,Structure (SMILES),"activity change, negative = inhibition"
1,Cc1coc2c(C)c3oc(=O)c(CCC(=O)N4CCCCC4)c(C)c3cc12,inactive: 3.7%
2,N#Cc1ccccc1OCC(=O)N1CCN(c2ccccc2)CC1,inactive: 1.34%
3,CN(C)c1ccc(CNC(=O)CCCN2C(=O)CCn3nc(-c4cn(C)c5ccccc45)cc32)cc1,inactive: -0.413%
4,Cc1c(NS(=O)(=O)c2ccc(Cl)cc2)c(=O)n(-c2ccccc2)n1C,inactive: 2.23%
5,Cc1nc2c(c(C)c1CCC(=O)Nc1ccc(F)cc1)c(=O)n(C)c(=O)n2C,inactive: -9.54%
6,CCc1cccc(-n2nnc(S(=O)(=O)c3ccc(OC)cc3)c2C)c1,inactive: -12.5%
7,COc1ccc(C2=NN(CCC(=O)NCCc3ccccc3)C(=O)CC2)cc1,inactive: -7.47%
8,COCCn1c(C)cc(O)c(C(c2ccccc2F)N2CCN(c3ccccc3)CC2)c1=O (stereo unspecified),inactive: -20.4%
9,Cc1ccc(Cn2cc(CCC(=O)NCC(C)c3ccccc3)c3ccccc32)cc1 (stereo unspecified),inactive: 0%
10,COc1ccc(NC(=O)Cn2nnc(-c3nc(-c4ccncc4)no3)c2N)cc1OC,inactive: -8.17%
11,Cc1cccc(C)c1NC(=O)C1CCCN1S(=O)(=O)c1cccc2nsnc12 (stereo unspecified),inactive: -9.7%
12,Cc1ccc(NC(=O)c2cccc(NC(=O)N3CCSc4ncccc43)c2)cc1F,inactive: 0.114%
13,CCOc1ccc(CNC(=O)c2ccc(NC(=O)N3CCSc4ncccc43)cc2)cc1,inactive: -10.5%
14,CCCN1C(=O)c2oc3cc(C)cc(C)c3c(=O)c2C1c1ccc(F)cc1 (stereo unspecified),inactive: 0.814%
15,COc1ccc(-c2cc(C(F)(F)F)nc(SCC(=O)Nc3ccc(O)cc3)n2)cc1OC,inactive: -0.492%
16,Cc1ccc(C)c(NC(=O)c2cnc3sc(N4CCOCC4)nn3c2=O)c1,inactive: -11.5%
17,CCN(CC)CCCNC(=O)CCc1c(C)nc2c(c1C)c(=O)n(C)c(=O)n2C,inactive: -10.6%
18,COc1ccc(-c2nc3cc(NC(=O)COc4ccc(C)c(C)c4)ccc3o2)cc1,inactive: -0.22%
19,Cc1cc(=O)c2cc(C(=O)Nc3cccc(C)c3C)ccc2[nH]1,inactive: 0.0248%
20,CCOc1ccc(C(=O)NCCc2sc(-c3ccc(F)cc3)nc2C)cc1,inactive: 0.901%
21,COc1ccc(Nc2ncc(C(=O)N3CCN(c4ccccc4OC)CC3)c3ccccc23)cc1,inactive: 4.09%
22,CCOC(=O)c1ccc(NC(=O)CN2C(=O)c3cccnc3Sc3ccccc32)cc1,inactive: -21%
23,O=C(Cn1ncc2c3ccccc3n(Cc3cccc(Cl)c3)c2c1=O)NCCC1=CCCCC1,inactive: 2.68%
24,Cc1ccccc1Cn1c(=O)n(CCCCCC(=O)NCc2ccc3c(c2)OCO3)c(=O)c2sccc21,inactive: -12.5%

row,Structure (SMILES),"activity change, negative = inhibition"
1,CCN(CC)c1ccc(CNS(=O)(=O)c2cc3c(cc2C)NC(=O)CO3)cc1,inactive: 14.1%
2,COc1ccc(NC(=O)CSc2ncc3c(n2)-c2ccccc2N(C)S3(=O)=O)cc1Cl,inactive: 6.56%
3,Cn1c(SCc2ccccc2Cl)nc(=O)c2c1NC(=O)CC2c1cc(F)ccc1F (stereo unspecified),inactive: -3.3%
4,CCOc1ccc(NC(=O)Nc2c[nH]c(=O)[nH]c2=O)cc1,inactive: 0.217%
5,CCOC(=O)c1ccccc1NC(=O)Cn1c(=O)n(-c2ccc(CC)cc2)c(=O)c2c(C)c(C(=O)N(C)C)sc21,inactive: -5.19%
6,CCOc1ccccc1CNC(=O)c1ccc2c(c1)nc1n2CCC(C)C1 (stereo unspecified),inactive: 0%
7,CC(C)Sc1nc2sc3c(c2c(=O)n1-c1ccccc1)CCCC3,inactive: 3.58%
8,CC(=O)c1ccc(N2C(=O)Nc3ccccc3S2(=O)=O)cc1,inactive: 0.666%
9,Cc1ccc(N2CC(NC(=O)c3ccccc3Br)CC2=O)cc1 (stereo unspecified),inactive: -8%
10,O=C(Nc1ccc(F)c(Cl)c1)C1CCN(S(=O)(=O)c2ccc3c(c2)CCCN3C(=O)C2CCC2)CC1,inactive: -7.17%
11,Cc1ccc(CSc2cn(CCNC(=O)c3cccs3)c3ccccc23)cc1,inactive: 1.48%
12,O=C(Cn1c(SCC(=O)Nc2ccc(F)cc2)nc2ccccc21)NCc1ccc(Cl)cc1,inactive: -12.5%
13,Nc1ncc(S(=O)(=O)Nc2ccc(OC(F)(F)F)cc2)cn1,inactive: -9.56%
14,COc1ccccc1N(CC(=O)Nc1cc(C)cc(C)c1)S(C)(=O)=O,inactive: 2.71%
15,O=C(Nc1nnc(S(=O)(=O)N2CCCCCC2)s1)c1ccccc1,inactive: 0%
16,CCc1ccc(NS(=O)(=O)c2c(-c3ccccc3)csc2C(=O)OC)cc1,inactive: -24.4%
17,Cc1cc(NCc2ccc(Cl)cc2)n2cnnc2n1,inactive: -16.2%
18,Nc1nonc1-c1nc2ccccc2n1CC(=O)Nc1cccc(Cl)c1Cl,inactive: -22.7%
19,CCc1cccc(NC(=O)Cn2ccn3nc(-c4ccc(OC)c(OC)c4)cc3c2=O)c1,inactive: 6.8%
20,O=C(Nc1ccc(F)cc1)c1ccc2c(c1)NC(=O)c1ccccc1S2,inactive: -3.18%
21,CN(Cc1ccco1)S(=O)(=O)c1nnc(NC(=O)c2ccccc2)s1,inactive: -4.79%
22,Cc1cccc(-c2noc(-c3ccc(NCc4cccnc4)c([N+](=O)[O-])c3)n2)c1,inactive: 2.6%
23,CCOc1ccc(NC(=O)c2nnn(-c3ccc(F)c(Cl)c3)c2C)cc1,inactive: 2.18%
24,Cc1ccccc1NC(=O)Cn1cc(S(=O)(=O)N2CCCC2)c(S(=O)(=O)N2CCCC2)c1,inactive: 7.22%

row,Structure (SMILES),"activity change, negative = inhibition"
1,CC1=C(C(=O)Nc2ccccc2)C(c2ccccn2)n2nc(SCc3ccccc3Cl)nc2N1 (stereo unspecified),inactive: 0%
2,COC(=O)c1ccc(Oc2nc3c(c(=O)n(C)c(=O)n3C)n2Cc2ccc(Cl)c(Cl)c2)cc1,inactive: 3.28%
3,CCC(=O)Nc1cccc(OCc2cc(=O)n3cc(C)ccc3n2)c1,inactive: -4.2%
4,COc1ccc(NC(=O)c2oc3ccccc3c2NC(=O)C23CC4CC(CC(C4)C2)C3)cc1,inactive: -1.3%
5,COc1ccc(OC)c(NC(=O)c2c(NCc3ccc(N(C)C)cc3)sc3c2CCCC3)c1,inactive: -19.1%
6,COc1cc(OC)cc(C(=O)Nc2ccc3c(c2)n(C)c(=O)c(=O)n3C)c1,inactive: -9.29%
7,Cc1ccc(OCc2cc(=O)n3c4c(sc3n2)CCCC4)cc1C,inactive: -2.43%
8,COc1ccc(S(=O)(=O)N(CC(=O)Nc2ccc3c(c2)OCO3)c2ccc(C)cc2)cc1,inactive: 5.42%
9,O=C(NCc1ccccc1Cl)c1ccc(NC(=O)N2CCSc3ccccc32)cc1,inactive: 1.14%
10,Cn1cc(S(=O)(=O)N2CCCCC2)cc1C(=O)Nc1ccc(OC(F)(F)F)cc1,inactive: -10.3%
11,O=C(Cn1cc(S(=O)(=O)c2ccccc2)c(=O)c2cc3c(cc21)OCO3)Nc1ccccc1,inactive: -21.4%
12,O=C(NCCCc1ccccc1)c1nn(-c2ccccc2)nc1CO,inactive: 1.76%
13,CCc1ccc2occ(CC(=O)Nc3sc4c(c3C(=O)NCCOC)CCCC4)c2c1,inactive: 3.52%
14,Cc1ccc(S(=O)(=O)C(CNC(=O)c2ccc(C(F)(F)F)cc2)c2ccco2)cc1 (stereo unspecified),inactive: -0.954%
15,Cc1noc(-c2ccc(-c3noc(-c4cccc(Cl)c4)n3)cc2)n1,inactive: -0.443%
16,Cc1nc2nc(SCC(=O)NC3CCC(C)CC3)nn2c(C)c1Cc1ccccc1Cl (stereo unspecified),inactive: -2.04%
17,Cc1nc2c(-c3ccccc3)c(C)nn2c(C)c1CCC(=O)NCc1ccccc1,inactive: 3.54%
18,CCn1cc2nc(SCc3cccc(C)c3)n(CCc3ccccc3)c(=O)c2n1,inactive: -17%
19,CCOC(=O)c1ccc(NC(=O)CCC(=O)N2CCSc3ccccc32)cc1,inactive: -12.8%
20,CCc1ccc2oc(-c3ccc(C)c(NC(=O)c4ccc(C#N)cc4F)c3)nc2c1,inactive: -7.12%
21,COc1ccc2c(c1)c(=O)c(S(=O)(=O)c1ccccc1)cn2CC(=O)Nc1ccc2c(c1)OCO2,inactive: -17.3%
22,CCCN(C(=O)Cn1ncc2c([nH]c3ccccc32)c1=O)c1ccc(F)cc1,inactive: 0.632%
23,CC(=O)c1cccc(NC(=O)CCCSc2nc(-c3ccco3)cc(C(F)(F)F)n2)c1,inactive: -18.9%
24,CCOC(=O)C1CCCN(C(=O)c2ccc3c(c2)N(Cc2ccccc2F)C(=O)c2ccccc2S3=O)C1 (stereo unspecified),inactive: -1.54%
